PMC4336329 (PLoS ONE, 2015)
Out of some 310,000 compounds screened, about 14,000 (4.5%) showed an effect of 50% or more. The effect is printed as a negative number. Some of the results follow.

Target: human ether-à-go-go-related gene (hERG) potassium channel (human, UniProt Q12809)
Experiment: primary screen, population patch clamp on CHO cells stably expressing hERG
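Further: peak tail current of the secondary pulse compared with the same well before compound.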

human ether-à-go-go-related gene (hERG) potassium channel, sequence (Q12809 whole entry, looked up): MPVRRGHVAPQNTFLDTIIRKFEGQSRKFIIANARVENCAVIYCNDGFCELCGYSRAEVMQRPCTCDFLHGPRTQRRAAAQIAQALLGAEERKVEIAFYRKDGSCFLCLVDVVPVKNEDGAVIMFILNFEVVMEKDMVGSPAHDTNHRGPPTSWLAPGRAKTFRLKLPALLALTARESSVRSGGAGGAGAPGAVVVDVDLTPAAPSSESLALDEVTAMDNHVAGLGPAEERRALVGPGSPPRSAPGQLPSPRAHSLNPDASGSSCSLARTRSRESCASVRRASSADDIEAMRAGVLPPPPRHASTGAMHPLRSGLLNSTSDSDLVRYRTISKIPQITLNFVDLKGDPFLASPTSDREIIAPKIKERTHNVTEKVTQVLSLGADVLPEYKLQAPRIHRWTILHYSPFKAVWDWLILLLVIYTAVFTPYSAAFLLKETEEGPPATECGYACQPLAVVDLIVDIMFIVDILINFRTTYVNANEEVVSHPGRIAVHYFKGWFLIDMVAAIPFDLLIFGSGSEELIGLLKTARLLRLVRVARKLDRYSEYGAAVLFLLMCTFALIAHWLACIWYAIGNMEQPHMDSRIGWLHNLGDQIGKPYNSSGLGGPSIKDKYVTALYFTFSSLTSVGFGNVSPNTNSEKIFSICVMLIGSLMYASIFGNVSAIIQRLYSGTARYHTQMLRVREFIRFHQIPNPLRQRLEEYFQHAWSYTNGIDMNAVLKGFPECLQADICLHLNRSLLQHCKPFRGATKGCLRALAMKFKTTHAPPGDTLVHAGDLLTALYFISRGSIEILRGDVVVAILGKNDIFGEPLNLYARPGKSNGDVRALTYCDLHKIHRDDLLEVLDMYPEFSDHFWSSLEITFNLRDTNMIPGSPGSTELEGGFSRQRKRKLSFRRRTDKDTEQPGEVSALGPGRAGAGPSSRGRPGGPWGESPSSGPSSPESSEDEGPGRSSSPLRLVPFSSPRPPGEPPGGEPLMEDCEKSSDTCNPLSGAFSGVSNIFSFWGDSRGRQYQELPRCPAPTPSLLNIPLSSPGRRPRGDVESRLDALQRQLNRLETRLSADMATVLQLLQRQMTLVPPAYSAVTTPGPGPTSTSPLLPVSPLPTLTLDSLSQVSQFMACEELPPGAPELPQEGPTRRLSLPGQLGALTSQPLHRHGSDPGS

SMILES	hERG current change (%, negative = inhibition) at 10uM
CC(C)CCc1c(O)nc(SCC(C)C)[nH]c1=O	-14.2%
O=C(Cn1cc(C=C2C(=O)NC(=O)NC2=O)c2ccccc21)NCC1CCCO1 (stereo not drawn)	17.2%
COc1ccc(N(CC(=O)Nc2cccc(C)c2C)S(=O)(=O)c2c(C)[nH]c(=O)[nH]c2=O)cc1	1.67%
CCC12CN(C(=O)c3ccc(C)cc3)CC(CC)(CN(C(=O)c3ccc(C)cc3)C1)C2=O	-33.3%
O=C(NCCc1ccco1)C(=O)NCC1OCCCN1S(=O)(=O)c1ccccc1 (stereo not drawn)	-1.76%
O=C(Nc1cc(C(F)(F)F)ccc1-n1cncn1)c1ccc(F)cc1Cl	-38.3%
O=C(COC(=O)c1cnccn1)NCc1ccc2c(c1)OCO2	9.57%
CC(C)c1ccccc1NC(=O)CNCCc1ccc(C(F)(F)F)cc1.O=C(O)C(=O)O	-48.1%
COc1ccc(C)cc1NC(=S)Nc1ccccc1SC	-4.13%
O=C(/C=C/c1ccc(Cl)c([N+](=O)[O-])c1)c1ccc(O)cc1	-1.19%
CC(=O)Oc1ccc(-c2cccc(C(=O)Oc3ccccc3)c2)cc1	16.4%
COc1cc(OC)cc(C(=O)NCC(=O)OCC(=O)NC(C)(C)C)c1	8.34%
CCCCCCC(=O)NCC(=O)OCC(=O)c1ccccc1	-18.1%
CCCc1c(C)nn(C(=O)/C(C#N)=N/Nc2ccccc2[N+](=O)[O-])c1C	21.1%
Cc1ccc(CNc2ncc(-c3ccc4c(c3)OCO4)n2C)cc1.O=C(O)C(=O)O	-59%
Br.Oc1ccc(-c2cn3ccccc3n2)cc1	11.4%
Cc1ccc(OCCNCC(O)COc2ccccc2)cc1.O=C(O)C(=O)O (stereo not drawn)	-44.2%
COc1cc(CCC(=O)Nc2cccc(C(F)(F)F)c2)cc(OC)c1OC	-2.51%
Cc1ccccc1OCC1Cc2c(nc(N)c(C#N)c2N)O1 (stereo not drawn)	-1.3%
CCN(CC)c1cc(C)c(C#N)c2nc3ccccc3n12	-1.47%
Cc1cc(OCc2nnc(SC(C)C(=O)O)n2-c2ccccc2)ccc1Cl (stereo not drawn)	21.7%
Cc1cc(C(=O)NCc2cc(F)cc3c2OCOC3)nn1C	23.1%

SMILES	hERG current change (%, negative = inhibition) at 10uM
CCOc1ccc(CCNS(=O)(=O)c2ccc3c(c2)NC(=O)CO3)cc1OCC	5.62%
COc1cccc(N2CCN(C(=O)c3oc4ccccc4c3NC(=O)Cc3ccc(OC)c(OC)c3)CC2)c1	-14.1%
Cn1cc(Br)c(C(=O)NNC(=O)c2ccc(Cl)cc2)n1	-13.2%
CNC(=O)Nc1cc(NC(=O)NC)cc(C(F)(F)F)c1	5.81%
COc1ccc(Cl)cc1NC(=O)C1Cc2ccccc2CN1S(C)(=O)=O (stereo not drawn)	14.7%
CC1CC(C)CN(CCCNC(=O)Cn2ncc3c([nH]c4ccccc43)c2=O)C1 (stereo not drawn)	-18%
CNC(=O)C1CCN(S(=O)(=O)c2c(C)noc2/C=C/c2ccc(C)cc2)CC1	10.5%
O=C(COC(=O)C1(c2ccc(F)cc2)CCCC1)NCc1ccc2c(c1)OCO2	-18.3%
Cc1ccc(CSc2nnc(-c3ccc(S(=O)(=O)N4CCCC4)cc3)o2)cc1	3.2%
Cc1nn(-c2ccccc2)cc1/C=N/NC(=O)c1cccs1	1.84%
O=C(Cc1c[nH]c2ccccc12)OCC(=O)c1ccccc1	11.1%
O=C(COC(=O)Cn1cnc2ccccc21)Nc1cc(S(=O)(=O)N2CCOCC2)ccc1Cl	-0.439%
CCCOC(=O)c1ccc(Oc2cn[nH]c2-c2ccc(OCC)cc2O)cc1	8.01%
Cc1nc(CNC(=O)CC2C(=O)NCCN2Cc2ccoc2)nc2c1CCCC2 (stereo not drawn)	6.51%
Cc1ccc(-c2ccc(/C=N/NC(N)=S)o2)cc1	-23.4%
Cl.O=C(Nc1ncccc1Cl)c1ccc2c(c1)OCCO2	2.17%
CCOC(=O)C1=C(CN2CCc3ccccc32)NC(=O)NC1c1cccc([N+](=O)[O-])c1 (stereo not drawn)	-7.46%
COc1ccc(C(CNC(=O)COc2ccc([N+](=O)[O-])cc2)N2CCCCC2)cc1 (stereo not drawn)	-69.9%
COc1ccc(CNC(=O)C2CCCN(S(=O)(=O)c3ccccc3)C2)cc1 (stereo not drawn)	-5.16%
Cc1cccc(C)c1NC(=O)C(C)c1ccc(-c2ccccc2)c(F)c1 (stereo not drawn)	0.222%
Cc1[nH]n(C(N)=S)c(=O)c1N=Nc1cc(-c2ccc(Br)cc2)[nH]n1	24.7%
CCOC(=O)C1(Cc2cccc(F)c2)CCN(C(=O)Cc2cccnc2)CC1	-9.65%

SMILES	hERG current change (%, negative = inhibition) at 10uM
O=C1NC(=Nc2cccc(O)c2)S/C1=C\c1cccnc1	0.636%
COc1cc(NC(=O)c2cccs2)c(OC)cc1NC(=O)CCC(=O)Nc1ccc(C)cc1	-14.4%
Cc1ccc(C)c(N)c1	12.1%
Cc1ccc(S(=O)(=O)N(C)c2ccc(C(=O)Nc3c(C)n(C)n(-c4ccccc4)c3=O)cc2)cc1	0.214%
CCCCc1nn(-c2cc(Cl)ccc2OC)c2c1C(=O)CC(C)(C)C2	-39.4%
CNc1nccc(-c2ccc(F)cc2)c1C#N	6.25%
O=C(Nc1ccc(Cl)cc1)OC(CN1CCCCC1)C(F)(F)F (stereo not drawn)	0.427%
COc1ccc(N2CCN(C(=O)COC(=O)c3cccc(S(=O)(=O)Nc4ccccc4OC)c3)CC2)cc1	-40.2%
CCOC(=O)CSc1ccc2nnc(-c3ccccc3)n2n1	-39.3%
O=C(CNC(=O)c1cccs1)c1ccc([N+](=O)[O-])cc1	-18.4%
CC/C(=N\NC(=O)c1ccc(Br)cc1)c1ccccc1	11.4%
CCOc1ccc2nc(SC(CC)C(=O)Nc3cc(C)on3)sc2c1 (stereo not drawn)	22.8%
O=C(Nc1cc(C(F)(F)F)ccc1N1CCOCC1)c1cn2ccccc2n1	-2.98%
O=C(NC1CCCCCCC1)c1ccc(S(=O)(=O)N2CCCC2)cc1	-2.4%
CC(NC(=O)COC(=O)/C=C/c1ccco1)c1ccccc1 (stereo not drawn)	4.48%
Cc1cc(CNC(=O)COc2ccc(F)cc2)c2ccccc2n1	-13%
O=C(/C=C/c1ccc(Br)cc1)c1ccco1	11.8%
CC1CCCN(CC(=O)Nc2ccc(S(=O)(=O)N3CCCCC3)cc2)C1 (stereo not drawn)	-15.7%
CCC(=O)Nc1ccc(NC(=O)c2oc3ccccc3c2C)cc1	6.1%
COc1ccccc1NC(=S)NC1CCCC1	-8.43%
CC1(C)CC(NC(=O)COc2ccc3ccccc3c2)CC(C)(C)N1	-12.6%
CC(C)(C)NC(=S)NNC(=O)c1ccc2ncccc2c1	9.77%

SMILES	hERG current change (%, negative = inhibition) at 10uM
COCCNC(=S)N/N=C(\C)c1ccc2cc(OC)ccc2c1	32.1%
CCOC(=O)C1CCCN(C(=O)c2ccccc2Oc2ccccc2)C1 (stereo not drawn)	-29.5%
Cc1cc(C(=O)N2CCOCC2)c(C)o1	7.73%
Cc1ccc2nc(-c3ccccc3)cc(C(=O)N3CC(C)OC(C)C3)c2c1 (stereo not drawn)	-5.94%
CC(=O)c1ccc(OC(=O)CCN2c3ccccc3Sc3ccccc32)cc1	24.2%
C[C@@H]1C(=O)O[C@H]2[C@H](O)[C@@]34[C@H]5C[C@@H](C(C)(C)C)[C@]36[C@@H](OC(=O)[C@@H]6O)O[C@@]4(C(=O)O5)[C@@]12O	21.2%
COc1ccc(CN2CCNC(=O)C2CC(=O)NCCC2=CCCCC2)c(F)c1 (stereo not drawn)	-32.9%
CCOC(CNC(=O)CN1C(=O)COc2ccc(S(=O)(=O)N3CCOCC3)cc21)OCC	18.7%
COc1cccc(NC(=O)NC2CCCc3ccccc32)c1 (stereo not drawn)	12.1%
Cc1[nH]c2ccccc2c1C(=O)C(=O)NCc1ccncc1	5.61%
CC(SCc1ccccc1)C(=O)Nc1ccccc1-c1ccccc1 (stereo not drawn)	-4.91%
COc1ccc(-c2noc(N3CCC(C(=O)Nc4ccc(F)cc4F)CC3)n2)cc1	-5.26%
CN(C)c1nc(N(C)C)nc(N2CC(=O)N(c3ccccc3)C2=N)n1	10.3%
O=C(CC(=O)NC1CCCCC1)N/N=C/c1ccc(Cl)cc1	-0.0137%
O=C(NC1CCCCC1)c1ccc(CS(=O)Cc2ccccc2Cl)o1 (stereo not drawn)	-9.4%
CN(C(=O)COC(=O)CNC(=O)CNC(=O)c1ccc(Cl)cc1Cl)c1ccccc1	-20%
CCN(CC)S(=O)(=O)c1ccc2c(c1)N(CC(=O)NCC1CCCO1)C(=O)CO2 (stereo not drawn)	14.4%
COc1ccc(S(=O)(=O)N2CCN(C)CC2)cc1NC(=O)c1ccccc1F	-14.3%
O=C(O)c1nn(Cc2ncc(-c3cccc(Cl)c3)o2)c(=O)c2ccccc12	-1.95%
Cc1cc(NC(=O)C2CCCN2C(=O)Nc2cccc(Cl)c2)ccc1-n1cnnn1 (stereo not drawn)	-48.3%
COc1ccc(-n2ncc3c(=O)n(CC(=O)Nc4ccc5c(c4)OCCO5)cnc32)cc1	25.2%
